From PubChem BioAssay AID624296 (National Center for Advancing Translational Sciences (NCATS), 2012)
In all, about 350,000 compounds went through this assay and about 9,900 (2.8%) were called active. The inconclusive results got no clear call from the source; some entries with a clear call stand among them for comparison. Calls follow the shape of the dose curve; as a rule, active = well fitted activation curve with a large enough effect; inconclusive = small, poorly fitted or top-dose-only effect; inactive = no such curve, though single readings can be large or run the other way. Potencies of inconclusive entries are left out as doubtful fits.

Assay: A quantitative high throughput screen for small molecules that induce DNA re-replication in MCF 10a normal breast cells. Also: nearly all actives have a fitted effect of over 50% in size. As to activity, positive = re-replication: % of control where 0% means no effect.
Conditions: MCF 10A DNA re-replication, Hoechst nuclear intensity, 48 h; activity, positive = re-replication: at 46.1 µM (top of the series)
Potency is read from the fitted curve at half-maximal effect; tags tell the direction and shape of the fitted curve.

Compound	Potency	activity, positive = re-replication
CSCC[C@H](NC(=O)OC(C)(C)C)c1nnc(SCc2ccc(F)cc2)o1	inconclusive [activator, partial curve]	–
CC(OC(=O)c1nc(Cl)ccc1Cl)C(=O)Nc1ccc2c(c1)OCCO2 (stereo not given)	active: 1.64 µM	–
Cc1ccc(-c2ccc(=O)n(CC(=O)Nc3ccc4c(c3)OCCO4)n2)cc1	inconclusive [activator, full curve, poor fit]	–
Cc1ccccc1CC(=O)c1ccc(O)c(C)c1O	inconclusive [activator, single point]	–
COC(=O)C(C)(C)ONC(=O)Nc1ccccc1Br	inconclusive [activator, partial curve]	–
Cc1ccc(SC2CC(=O)N(c3ccc4c(c3)OCCO4)C2=O)cc1 (stereo not given)	inactive	–
Cc1ccc(NS(=O)(=O)c2ccc(Cl)c(C(=O)Nc3ccccc3-c3nc4ccccc4[nH]3)c2)cc1C	active: 5.17 µM	–
COc1ccc(OC)c(/C(C)=N\NC(=O)c2cc3cc(Cl)ccc3n2C)c1	active: 14.6 µM	–
COCc1c(C(=O)N2CCN(Cc3ccc(C#N)cc3)CC2)oc2ccccc12	inconclusive [activator, single point]	–
COc1ccc2[nH]c(=O)c(CN(Cc3cccs3)C(=S)Nc3cccc(C)c3)cc2c1	inconclusive [activator, full curve, poor fit]	–
CC(=O)c1ccc(N2CCN(S(=O)(=O)c3cc(-c4cc(C)no4)ccc3C(C)C)CC2)cc1	inconclusive [activator, full curve]	–
COc1cc(NC(=O)c2ccc(C)cc2C)ccc1NC(=O)c1cccs1	inactive	–
O=C1Nc2ccc(Cl)cc2C(=O)C1(F)c1ccccc1 (stereo not given)	inactive	–
CC(=O)Nc1cc(C(=O)N2CCc3ccccc3C2)ccc1Sc1ccc(Cl)cc1	active: 23.1 µM	–
CCOC(=O)c1c(CSC(=N)N)n(-c2ccc(Br)cc2)c2cc(Br)c(OC(C)=O)cc12	active: 10.3 µM	–
Cc1cc(C(=O)NCCCN2CCN(c3cc(Cl)ccc3C)CC2)n(-c2ccccc2)n1	inconclusive [activator, single point]	–
CC(=O)Nc1cccc(NC(=O)c2c(-c3ccccc3Cl)noc2C)c1	inconclusive [activator, single point]	–
COc1ccccc1N(CC(=O)Nc1ccccc1C(F)(F)F)S(=O)(=O)c1cccs1	inactive	–
O=C(CNCC1CCCCC1)Nc1ccc(OC(F)(F)F)cc1	inconclusive [activator, single point]	–
O=C(O)Cc1cccc(=O)c(O)c1C(=O)O	inactive	–
CCn1cc(C(=O)O)c(=O)c2cc(F)c(N/N=C/c3ccccc3)cc21	inconclusive [activator, single point]	–
NC(=O)N/N=C/c1cn(CC(=O)Nc2ccc(F)cc2)c2ccccc12	inactive	–
CCOc1ccc(-c2nnc(SCc3nc4ccccc4[nH]3)n2N)cc1	inactive	–
CSc1cc(-c2ccc(Cl)cc2)[nH]c(=O)c1C#N	inactive	–
COc1cc(-c2c(C#N)c(N)nc3c2CCCC3)cc(OC)c1OC	inactive	–

Compound	Potency	activity, positive = re-replication
Cc1nc2sc3c(c2c(=O)n1NC(=O)CCBr)CCCC3	inconclusive [activator, single point]	–
Cc1cc2c(s1)c1cnn(CC(=O)NCCc3ccccc3)c(=O)c1n2C	inconclusive [activator, partial curve, poor fit]	–
CCOC(=O)c1cccc(NC(=O)/C=C/c2ccc3c(c2)OCO3)c1	active: 9.2 µM	–
O=C(COc1ccccc1)N1CCN(c2ncccn2)CC1	inconclusive [activator, single point]	–
Cc1cc(O)c(N=Cc2cc3c(cc2[N+](=O)[O-])OCO3)cc1C	active: 16.4 µM	–
Cc1ccc(CN2CCN(Cc3ccc(-n4cccn4)cc3C)CC2CCO)cc1 (stereo not given)	inconclusive [activator, single point]	–
COc1ccc(Nc2nc(C(=O)N(CCO)Cc3ccccc3)cs2)cc1	inconclusive [activator, partial curve, poor fit]	–
N#C/C(=N/Nc1ccc(OC(F)(F)F)cc1)C(N)=S	inconclusive [activator, partial curve]	–
CCCc1ncc(C(O)c2ccccc2OC)n1C (stereo not given)	inactive	–
CS(=O)(=O)Nc1cccc(C2=NN(C(=O)c3ccco3)C(c3ccco3)C2)c1 (stereo not given)	inconclusive [activator, single point]	–
O=C1C2CCCN2C(=O)N1CCCCN1CCN(c2cccc(Cl)c2)CC1 (stereo not given)	–	inconclusive: 52.5% [activator]
CCC(C)Sc1ccc(-c2nc3ccc(C)cn3c2NC2CCCCC2)cc1 (stereo not given)	inconclusive [activator, single point]	–
Cc1ccc(Nc2nnc(-c3ccccc3N)o2)cc1C	inactive	–
COc1ccc2c(c1)[nH]c(=O)c1sc3ccccc3c12	active: 13 µM	–
c1ccc(Nc2ccnc(Nc3ccccc3)n2)cc1	inconclusive [activator, single point]	–
CC(=O)c1cccc(CN2CCCC(C(=O)Nc3ccc(-c4ccco4)cc3)C2)c1 (stereo not given)	inconclusive [activator, partial curve, poor fit]	–
COC(=O)c1sccc1NC(=O)c1ccc(Br)o1	inconclusive [activator, single point]	–
NC(=O)c1ccccc1N/C=C/C(=O)c1ccc(Cl)cc1Cl	inactive	–
C=CCn1c(C)cc(-c2csc(NC)n2)c1C	inconclusive [activator, partial curve, poor fit]	–
CC(C)OP(=O)(c1ccc(N(C)C)cc1)C(Nc1ccccc1)c1ccccc1 (stereo not given)	inactive	–
COc1ccccc1NC(=O)N(CCCN1CCOCC1)Cc1cc2cc3c(cc2[nH]c1=O)OCO3	inactive	–
CC1CCc2c(sc3ncnc(NCCN4CCOCC4)c23)C1 (stereo not given)	inconclusive [activator, full curve, poor fit]	–
COc1ccc(C(NC(=O)c2cc(OC)ccc2OC)c2ccccc2)cc1 (stereo not given)	inconclusive [activator, single point]	–
CC(C)CN1CCN=C1Nc1ccccc1	inactive	–
CC(=O)Nc1ccc(S(=O)(=O)Nc2c(NC3CCCCC3)c3ccccc3oc2=O)cc1	inactive	–

Compound	Potency	activity, positive = re-replication
CCCCN(CC(O)COc1cccc(C)c1)CC(O)COc1cccc(C)c1 (stereo not given)	inconclusive [activator, partial curve, poor fit]	–
CCn1c(-c2cccn(Cc3ccc(Cl)cc3Cl)c2=O)n[nH]c1=S	inactive	–
CC1(C)O[C@@H]1COc1c2ccoc2cc2oc(=O)ccc12	inactive	–
CCN(CC)c1cc(CS(=O)c2ccccc2)nc(-c2ccccc2)n1 (stereo not given)	inconclusive [activator, partial curve, poor fit]	–
Cc1nc2ccccn2c1C(=O)N/N=C/c1ccc([N+](=O)[O-])o1	inconclusive [activator, single point]	–
Cc1c(NC(=O)C(C)OC(=O)C23CC4CC(CC(Br)(C4)C2)C3)c(=O)n(-c2ccccc2)n1C (stereo not given)	active: 1.46 µM	–
O=CN1CCN(C(=S)Nc2ccc(OC(F)F)cc2)CC1	inactive	–
CCCc1cc(C(=O)N2CCCC(Nc3ccc(C)c(C)c3)C2)n(C)n1 (stereo not given)	inconclusive [activator, full curve, poor fit]	–
CCCCNC(=S)N1CCn2cccc2C1c1ccccc1 (stereo not given)	inconclusive [activator, single point]	–
Cn1c(=S)c2[nH]c(SCc3cccnc3)nc2n(C)c1=O	inactive	–
Cc1ccccc1NC(=O)CSc1nnc(C2CC2)n1CC1CCCO1 (stereo not given)	inactive	–
Cc1ccc(C(OCC(O)CNC(C)c2ccccc2)c2ccccc2)cc1 (stereo not given)	inconclusive [activator, single point]	–
CCN(C[C@H]1N[C@@](CC)(C(=O)OC)[C@H]2C(=O)N(Cc3ccccc3)C(=O)[C@@H]12)C(C)=O	inactive	–
CC(C)(C)n1ncc2c(=O)n(CC(=O)NCc3ccc(F)cc3)cnc21	inconclusive [activator, partial curve, poor fit]	–
O=C(O)c1ccccc1/C=N/Nc1ccc(S(=O)(=O)Nc2ccc(Cl)cc2)cc1[N+](=O)[O-]	inactive	–
C[n+]1c2n(c3ccccc31)N=C(c1cc(C(C)(C)C)c(O)c(C(C)(C)C)c1)CS2	active: 16.4 µM	–
CCN(CC)S(=O)(=O)c1ccc(C(=O)NNc2nc(-c3ccccc3)c3cc(Br)ccc3n2)cc1	inactive	–
CCS(=O)(=O)NC(C)C(c1cccs1)N1CCN(c2ccc(OC)cc2)CC1 (stereo not given)	inactive	–
CCCC(=O)Nc1nc(C)c(-c2csc(Nc3ccccc3OC)n2)s1	inactive	–
Clc1ccc2nc(N3CCCCC3)sc2c1	inactive	–
Cc1nn(-c2ccccc2)nc1C(=O)Nc1ccc2[nH]ncc2c1	inconclusive [activator, single point]	–
Cc1cccc(NC(=O)c2ccccc2NC(=O)CCC(=O)O)c1	inconclusive [activator, partial curve, poor fit]	–
COc1ccc(NC(=O)c2sc3nc(-c4cccnc4)ccc3c2N)cc1OC	active: 14.6 µM	–
CSc1cccc(NC(=O)CCCNC(=O)c2ccc(Cl)cc2)c1	inconclusive [activator, single point]	–
COC(=O)C1=C(C)N(c2ccc(Cl)c(Cl)c2)C(=O)C1	inconclusive [activator, single point]	–
